In the antibiotic and cytotoxicity screens of Wong et al. (2023):
The list shows a part of the results.

Assays:
HSkMC = human skeletal muscle cells; assay: cytotoxicity call (relative viability < 0.9); settings: 10 µM
HepG2 = assay: cytotoxicity call (relative viability < 0.9); settings: 10 µM
S. aureus RN4220 = assay: growth inhibition call (relative growth <= 0.2); settings: 50 µM

Compound | cytotoxicity call (HSkMC) | cytotoxicity call (HepG2) | growth inhibition call (S. aureus RN4220)
NC(=O)c1cccnc1 | inactive | inactive | inactive
C[C@H]1CN([C@@H](C)CO)C(=O)c2cc(NC(=O)Cn3cnnn3)ccc2O[C@H]1CN(C)Cc1ccccc1 | inactive | inactive | inactive
Nc1cnc2ccc(Cl)nn12 | inactive | inactive | inactive
Nc1nc(N)nc(-c2ccccc2)n1 | inactive | inactive | inactive
C[C@@H]1CN([C@H](C)CO)C(=O)Cc2cc(NS(=O)(=O)c3cccs3)ccc2O[C@H]1CN(C)S(=O)(=O)c1ccccc1 | inactive | inactive | inactive
Nc1ncnc(NCCN2CCOCC2)c1[N+](=O)[O-] | inactive | inactive | inactive
NC(=O)Cn1cnc2sc3c(c2c1=O)CCC3 | inactive | inactive | inactive
COc1cccc(S(=O)(=O)Nc2ccc3c(c2)OC[C@H](C)N(C(=O)Cc2cccnc2)C[C@H](C)[C@@H](OC)CN(C)C3=O)c1 | inactive | inactive | inactive
C[C@@H]1CN([C@@H](C)CO)C(=O)c2cc(NS(C)(=O)=O)ccc2O[C@@H]1CN(C)C(=O)Nc1ccccc1 | inactive | inactive | inactive
Cc1ccc(S(=O)(=O)N(C)C[C@H]2Oc3ccc(NC(=O)NC(C)C)cc3C(=O)N([C@H](C)CO)C[C@H]2C)cc1 | inactive | inactive | inactive
NCCCCC(NC(CCc1ccccc1)C(=O)O)C(=O)N1CCCC1C(=O)O (centres undefined) | inactive | inactive | inactive
Cc1noc(C)c1NC(=O)Nc1ccc2c(c1)C(=O)N([C@@H](C)CO)C[C@@H](C)[C@H](CN(C)C(=O)Nc1ccc3c(c1)OCO3)OCCCC[C@@H](C)O2 | inactive | inactive | inactive
C[C@@H]1CN([C@H](C)CO)C(=O)c2cc(NS(=O)(=O)c3ccccc3)ccc2O[C@@H]1CN(C)Cc1ccncc1 | inactive | inactive | inactive
COc1ccc(C#Cc2ccc3c(c2)[C@]2(C(=O)N3)[C@H](C(N)=O)[C@H]3C(=O)O[C@H](c4ccccc4)[C@H](c4ccccc4)N3[C@@H]2c2ccccc2OCCO)cc1 | active | active | inactive
C[C@@H]1CN([C@H](C)CO)C(=O)c2cccc(NC(=O)c3ccncc3)c2O[C@@H]1CN(C)Cc1ccncc1 | inactive | inactive | inactive
Cc1ccc(S(=O)(=O)N(C)C[C@H]2Oc3ccc(NC(=O)C4CC4)cc3C(=O)N([C@H](C)CO)C[C@H]2C)cc1 | inactive | inactive | inactive
C[C@@H]1CCCCO[C@H](CN(C)Cc2ccccc2)[C@@H](C)CN([C@H](C)CO)C(=O)c2cc(NS(=O)(=O)c3ccc(Cl)cc3)ccc2O1 | inactive | inactive | inactive
Nc1nc(-c2ccccc2)cc[n+]1[O-] | inactive | inactive | inactive
C[C@@H]1CN([C@@H](C)CO)C(=O)c2cccc(NC(=O)C3CCOCC3)c2O[C@H]1CN(C)C(=O)Nc1ccccc1 | inactive | inactive | inactive
C[C@@H]1CCCCO[C@H](CN(C)C(=O)Nc2ccc3c(c2)OCO3)[C@H](C)CN([C@@H](C)CO)C(=O)c2cc(NS(=O)(=O)c3ccc(Cl)cc3)ccc2O1 | inactive | inactive | inactive
CO[C@H]1CN(C)C(=O)c2cc(NS(=O)(=O)CC(F)(F)F)ccc2OC[C@H](C)N(Cc2nccs2)C[C@H]1C | inactive | inactive | inactive
C[C@H]1CN([C@@H](C)CO)C(=O)c2cc(NS(=O)(=O)c3ccccc3)ccc2O[C@H]1CN(C)Cc1ccc(-c2ccccc2)cc1 | inactive | inactive | inactive
N=C(N)SCCN | inactive | inactive | inactive
COc1cccc(NC(=O)N(C)C[C@@H]2Oc3ncc(C#Cc4cccnc4)cc3C(=O)N([C@@H](C)CO)C[C@H]2C)c1 | inactive | inactive | inactive
C[C@@H]1CN([C@@H](C)CO)C(=O)c2cc(NC(=O)Cc3ccccc3)ccc2O[C@@H]1CN(C)C(=O)Nc1ccc(C(F)(F)F)cc1 | inactive | inactive | inactive
C[C@@H]1CN([C@H](C)CO)C(=O)c2cc(NC(=O)CCCN(C)C)ccc2O[C@@H]1CN(C)C(=O)Nc1ccc(F)cc1 | inactive | inactive | inactive
Nc1ccc(S(=O)(=O)[N-]c2cnc3ccccc3n2)cc1.[Na+] | inactive | inactive | inactive
C[C@@H]1CN([C@@H](C)CO)C(=O)c2cc(NC(=O)Nc3ccc(C(F)(F)F)cc3)ccc2O[C@@H](C)CCCCO[C@@H]1CN(C)S(=O)(=O)c1ccccc1 | inactive | inactive | inactive
